The results in this text go back to PubChem BioAssay AID1346428 (National Center for Advancing Translational Sciences (NCATS), 2018).

SMILES strings stand for the structures. Several values for one entry are separate records, joined by “and”; a condition that tells them apart may be missing. Equal entries are not always repeated. Screen size: about 48,000 compounds; about 1,200 (2.5%) were called active. Inconclusive results (about 2%) are left out.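 Rule for the calls: active = activation of at least 60% and not above a set upper limit (about 1 call in 100 departs from these limits); inconclusive = activation of 40% to 60%, or above that upper limit; inactive = activation under 40%.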 This is one part of the list. Some structures have more than one record in an assay (separate samples or runs), and their calls can disagree.

This assay addresses Probable G-protein coupled receptor 32 (Homo sapiens) (UniProt O75388). Put plainly: qHTS for Agonists of Human Resolvin D1 Receptor DRV1. Note: 0% is about no effect. The note with it: CHO-K1 GPR32 beta-arrestin PathHunter luminescence, 90 min; at 76.9 µM; stronger effect = higher value; zero percent set by DMSO-only wells. In a few lines: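 Luminescent readout of beta-Gal complementation quantifies ligand-induced beta-arrestin association with GPR32 in CHO-K1 cells; 90 min compound incubation at 37 °C, detection 1 h at room temperature.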
Sequence of UniProt O75388 (O75388 whole entry, looked up): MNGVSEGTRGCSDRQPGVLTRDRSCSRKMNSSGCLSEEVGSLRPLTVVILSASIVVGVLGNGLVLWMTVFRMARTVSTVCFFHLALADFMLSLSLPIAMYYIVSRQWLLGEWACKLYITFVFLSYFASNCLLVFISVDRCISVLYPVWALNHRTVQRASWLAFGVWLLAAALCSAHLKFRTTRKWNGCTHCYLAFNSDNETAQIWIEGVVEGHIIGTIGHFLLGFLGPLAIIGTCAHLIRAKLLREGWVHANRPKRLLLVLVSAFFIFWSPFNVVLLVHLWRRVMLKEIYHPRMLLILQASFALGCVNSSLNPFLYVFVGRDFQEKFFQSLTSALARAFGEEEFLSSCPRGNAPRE
Turning to `O=[N+]([O-])c1ccc(O[C@@H]2O[C@H](CO)[C@@H](O)[C@H](O)[C@H]2F)c([N+](=O)[O-])c1`, the activation was inactive: -6.77%.
Regarding `O=C(O)c1nn(Cc2ccc(Cl)cc2Cl)c2ccccc12`, the activation was active: 64% and inactive: -2.99%.
Under `Nc1ccccc1C(=O)OCC(O)CO` (configuration not stated) stands inactive: -5.39%.
The same measure for `CC(C)(C)c1cc(C=C(C#N)C#N)cc(C(C)(C)C)c1O`: inactive: -20.8%.
The same measure for `O=C(O)C(Cl)Cl`: inactive: -25.9%; for `Cc1ccc(-n2c(/C=C/c3ccccc3)nc3ccccc3c2=O)cc1C`: inactive: -12.2%.
For `C[C@@H]1C[C@@H]([C@H](O)CC2CC(=O)NC(=O)C2)C(=O)[C@@H](C)C1`, the activation was inactive: -7.28%.
Under `Cc1ccc2scc(N3CCN(C)CC3)c(=O)c2c1` stands inactive: -33%; under `C[C@H](N)C(=O)c1ccccc1`, inactive: -47.9%; under `COc1cc(C(O)CN)ccc1O` (configuration not stated), inactive: -3.69%.
Under `CCOC(C(=O)OCCN(C)C)(c1ccccc1)c1ccccc1` stands inactive: -8.83%; under `CN1[C@@H]2CC[C@H]1CC(OC(=O)c1cc(Cl)cc(Cl)c1)C2` (some centres not stated), inactive: 1.94%; under `O=c1[nH]oc2c1CCNC2`, inactive: -18.6% and inactive: -3.96%.
`Cc1cccc(CN2C(=O)CN=C(c3ccccc3Cl)c3cc(Cl)ccc32)c1`: the activation is inactive: 12.5%.
Under `Cc1ccc(C)c(CN2C(=O)c3ccccc3Sc3ccc(C(=O)N4CCC5(CC4)OCCO5)cc32)c1` stands inactive: -19.2%; under `O=C(c1ccc2c(c1)N(Cc1c(F)cccc1Cl)C(=O)c1ccccc1S2)N1CCC2(CC1)OCCO2`, inactive: -17.2%.
Under `C[N+]1(C)CCc2cc3c(cc2[C@H]1[C@@H]1OC(=O)c2c1ccc1c2OCO1)OCO3` stands inactive: 5.16%.
The same measure for `O=C(Nc1ccc(OC(F)(F)F)cc1)c1cccn(Cc2ccccc2Cl)c1=O`: inactive: -0.878%; for `CCn1c(CN2CCN(C)CC2)nc2ccccc21`: inactive: -1.14%.
In the case of `NC(CCP(=O)(O)O)C(=O)O` (configuration not stated), the activation is inactive: 10.7%.
The same measure for `CC(=O)C1CCOC1=O` (configuration not stated): inactive: -17.3%; for `Cc1cccc(-n2c(CC3C(=O)Nc4ccc(C)cc43)nc3ccccc3c2=O)c1` (configuration not stated): inactive: -28.4%.
The same measure for `NCC1(CC(=O)O)CCCCC1`: inactive: 7.94% and inactive: 5.77%; for `COc1cccc(-n2c(/C=C/c3cccc(C)c3)nc3ccccc3c2=O)c1`: inactive: -5.71%.
Under `CCC(=O)C(CC(C)N(C)C)(c1ccccc1)c1ccccc1` (configuration not stated) stands inactive: 46.3%; under `Cc1cccc(Cn2cccc(C(=O)Nc3nc4ccccc4s3)c2=O)c1`, inactive: 36.2%.
As to `CCOC(=O)c1ccc(NC(=O)CSc2nc3c(cc2C#N)N2CCC3CC2)cc1`, the activation is inactive: 13.5%.
Under `Nc1ccc(Cl)cc1N` stands inactive: -52.4%; under `COC[C@H]1OC(=O)c2coc3c2[C@@]1(C)C1=C(C3=O)C2CCC(=O)[C@@]2(C)C[C@H]1OC(C)=O` (some centres not stated), inactive: -10.3%; under `O=C(CCCN1CCC2(CC1)C(=O)NCN2c1ccccc1)c1ccc(F)cc1`, inactive: -3.67% and inactive: -2.01%.
On to `C[C@@H]1O[C@H](C[N+](C)(C)C)CS1`, for which the activation was inactive: 15.2%.
Under `O=[N+]([O-])O[C@H]1CO[C@H]2[C@@H]1OC[C@H]2O[N+](=O)[O-]` stands inactive: -11.7%.
The same measure for `Cc1ccc(-n2c(/C=C/c3cccc4ccccc34)nc3ccccc3c2=O)cc1`: inactive: -13.4%; for `CC(C)Oc1cccnc1N(C)C1CCN(Cc2ccccc2)CC1`: inactive: -3.53%; for `C[C@]12Cc3nonc3C[C@@H]1CC[C@@H]1[C@@H]2CC[C@@]2(C)[C@H]1CC[C@]2(C)O`: active: 65.4%.
The same measure for `C=C1CC[C@@]2(O)[C@H]3Cc4ccc(O)c5c4[C@@]2(CCN3CC2CC2)[C@H]1O5`: inactive: 8.58%.
For `O=C(COc1ccccc1[N+](=O)[O-])N1CCN(CCc2ccccn2)CC1`, the activation was inactive: 0.254%.
The same measure for `Cc1ccccc1-n1c(/C=C/c2ccccc2F)nc2ccccc2c1=O`: inactive: -19.6%; for `O=C(Nc1ccccc1C(F)(F)F)c1cccn(Cc2ccccc2)c1=O`: inactive: -1.22%; for `Cc1ncsc1CCCl`: inactive: 31.2% and inactive: 12.4%.
The same measure for `CCCCCCC(C)(C)c1ccc([C@@H]2C[C@H](O)CC[C@H]2CCCO)c(O)c1`: inactive: -1.29%.
The same measure for `C[C@]12Cc3cn[nH]c3C[C@@H]1CC[C@@H]1[C@@H]2CC[C@@]2(C)[C@H]1CC[C@]2(C)O`: inactive: -36.4%; for `CC(O)(CS(=O)(=O)c1ccc(F)cc1)C(=O)Nc1ccc(C#N)c(C(F)(F)F)c1` (configuration not stated): inactive: 8.2%.
For `C=CCN1CC[C@]23c4c5ccc(O)c4O[C@@H]2/C(=N/N=C2\CC[C@@]4(O)C6Cc7ccc(O)c8c7[C@@]4(CCN6CC=C)[C@@H]2O8)CC[C@@]3(O)C1C5`, the activation is inactive: -15.2%.
Under `CC1=C(C(=O)O)N2C(=O)[C@@H](N)[C@H]2SC1` stands inactive: -12.7%.
For `CCCn1c(=O)c2[nH]c(C3CCCC3)nc2n(CCCOC(=O)c2ccc(S(=O)(=O)F)cc2)c1=O`, the activation is inactive: -23.7%.
The same measure for `CNC(=O)Oc1cccc2ccccc12`: inactive: 5.17%.
The same measure for `N#Cc1cc2c(nc1SCC(=O)Nc1ccc(Cl)c(C(F)(F)F)c1)C1CCN2CC1`: inactive: -5.41%; for `CCOC(=O)c1cncn1C(C)c1ccccc1` (configuration not stated): inactive: -10.6%; for `CC(C)c1cccc(C(C)C)c1O`: inactive: 14.7% and inactive: -15.8%.
For the compound `Clc1ccc(COC(Cn2ccnc2)c2ccc(Cl)cc2Cl)cc1` (configuration not stated), the activation was inactive: -65.6%.
The same measure for `CC#C[C@]1(O)CC[C@H]2[C@@H]3C[C@H](C)C4=CC(=O)CC[C@]4(C)[C@H]3CC[C@@]21C`: inactive: 2%; for `CC(=O)[C@H]1CCC2C3CC[C@H]4C[C@H](O)CC[C@]4(C)C3CC[C@@]21C` (some centres not stated): inactive: 1.31%; for `Cc1ccc(CNC(=O)CCCn2c(=O)c3sccc3n(CC(=O)Nc3c(C)cccc3C)c2=O)cc1`: inactive: -20%.
Under `Cc1ccc(Cn2cccc(C(=O)Nc3ccc(C)c(Cl)c3)c2=O)cc1` stands inactive: 21.8%; under `CCN[C@H](C)Cc1cccc(C(F)(F)F)c1`, inactive: -45.1%; under `COc1ccc(C2CC(=O)Oc3c2c(=O)oc2ccccc32)c(OC)c1OC` (configuration not stated), inactive: 15.3%.
Under `CCCCCCCCCC(=O)O[C@H]1CC[C@H]2[C@@H]3CCC4=CC(=O)CC[C@@H]4[C@H]3CC[C@]12C` stands inactive: -45.1%; under `CCCCCCCCCCCCCCCC[N+](C)(C)C`, inactive: -5.38%; under `CN1C[C@H](CNC(=O)OCc2ccccc2)C[C@@H]2c3cccc4c3c(cn4C)C[C@H]21`, active: 79.5% and inactive: -22.2%.
Take `Cc1cccc(-n2c(/C=C\c3cccc(Br)c3)nc3ccccc3c2=O)c1`: the activation was inactive: -7.53%.
Under `CCN1C[C@@]2(COC)C3[C@@H](OC)C4[C@@H]1C3([C@@H]1C[C@]3(O)[C@H](OC(=O)c5ccccc5)[C@@H]1[C@]4(OC(C)=O)[C@@H](O)[C@@H]3OC)[C@H](OC)C[C@H]2O` stands inactive: 7.01%.
Consider `Cc1cc(OCC(=O)N2CCN(CCc3ccncc3)CC2)cc(C)c1Cl`, for which the activation is inactive: 27.7%.
The same measure for `O=C1NCN(c2ccccc2)C12CCN(CCCOc1ccc(F)cc1)CC2`: inactive: -9.08%.
In the case of `O=C(O)CC[N+](=O)[O-]`, the activation is inactive: -0.343%.
The same measure for `OCc1cnc[nH]1`: inactive: 13.2%.
The same measure for `CN1CCC(N(Cc2ccccc2)c2ccccc2)CC1`: inactive: -8.93%; for `C[C@@H]1O[C@@H](O[C@H]2C[C@@H](O)[C@]3(CO)[C@@H]4C(CC[C@]3(O)C2)[C@@]2(O)CC[C@H]([C@@H]3COC(=O)C3)[C@@]2(C)C[C@H]4O)[C@H](O)[C@H](O)[C@H]1O` (some centres not stated): inactive: 15%; for `COc1ccc(OC)c(CCNCc2c(C(=O)O)c(C)n(Cc3ccc(F)cc3Cl)c2C)c1`: inactive: -12.7%.
In the case of `C[CH2][Hg][S]c1ccccc1C(=O)O`, the activation was inactive: 35.9%.
Regarding `COc1ccc2c(c1OC)CN1CCc3cc4c(cc3C1C2)OCO4` (configuration not stated), the activation was active: 68.5%.
Consider `Cc1oc2cc3oc(=O)c(CCC(=O)N4CCCCC4)c(C)c3cc2c1C`, for which the activation was active: 86.7%.
For the compound `COP(=S)(OC)Oc1ccc(S(=O)(=O)N(C)C)cc1`, the activation was inactive: -2.76%.
Under `CCOc1ccc(CN(CCc2ccc3c(c2)OCO3)Cc2ccc(CC)cc2)cc1` stands inactive: -44.1%; under `CC[C@@H](CO)NC(=O)[C@@H]1C=C2c3cccc4c3c(cn4C)C[C@H]2N(C)C1`, inactive: -7.35% and inactive: 0.204%.
For the compound `COc1ccccc1CN1CCN(C(=O)COc2cccc(C)c2)CC1`, the activation is inactive: -12.5%.
The same measure for `COc1ccc(NC(=O)CN2C(=O)CN=C(c3ccccc3)c3ccccc32)c(OC)c1`: inactive: -31.4%; for `COc1ccc2c(c1)[C@@]13CCCC[C@H]1[C@@H](C2)NCC3`: inactive: -13.9%.
The same measure for `Cc1ccccc1-n1nc(C)c2c1NC(=O)CSC2c1ccccc1C(F)(F)F` (configuration not stated): inactive: 13.4%.
The same measure for `c1ccc(CN2CCNCC2)cc1`: inactive: -11.5%.
`Cc1cc([C@@H]2CCCN2C)on1`: the activation is inactive: -2.26%.
In the case of `CN1C(=O)CN=C(c2ccccc2)c2cc(Cl)ccc21`, the activation was inactive: -8.3%.
Under `CC(Cc1ccccc1)NCc1ccccc1Cl` (configuration not stated) stands inactive: 23.2%; under `C[C@]12CC[C@H](O)CC1=CC[C@@H]1[C@@H]2CC[C@]2(C)C(=O)CC[C@@H]12`, active: 72.8%.
Under `c1ccc2c(c1)OCC(C1=NCCN1)O2` (configuration not stated) stands inactive: 30.4% and inactive: -15.2%.
On to `O=C(COc1ccccc1Cl)N1CCN(CCc2ccccn2)CC1`, for which the activation was inactive: 1.02%.
Under `CCOc1ccc(CN(CCc2ccc3c(c2)OCO3)Cc2cccc(Br)c2)cc1` stands inactive: -36.7%.
